Consider seven molecules from paper PMC10095973.

By UniProt entry, the sequences of proteins in these tests, tags left out.
UniProt O04090: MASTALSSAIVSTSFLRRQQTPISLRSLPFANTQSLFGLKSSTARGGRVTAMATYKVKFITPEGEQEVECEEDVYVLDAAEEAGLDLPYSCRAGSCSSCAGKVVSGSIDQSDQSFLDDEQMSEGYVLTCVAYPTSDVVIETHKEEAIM
UniProt P16972: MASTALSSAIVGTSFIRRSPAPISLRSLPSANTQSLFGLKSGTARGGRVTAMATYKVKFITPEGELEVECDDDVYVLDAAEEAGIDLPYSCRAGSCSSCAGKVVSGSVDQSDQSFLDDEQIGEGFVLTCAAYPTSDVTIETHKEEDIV
UniProt Q9S831: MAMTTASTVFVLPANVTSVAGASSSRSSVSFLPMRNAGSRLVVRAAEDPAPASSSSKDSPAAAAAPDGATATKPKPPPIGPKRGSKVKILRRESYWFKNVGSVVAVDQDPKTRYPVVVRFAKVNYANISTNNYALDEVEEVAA
UniProt Q9S714: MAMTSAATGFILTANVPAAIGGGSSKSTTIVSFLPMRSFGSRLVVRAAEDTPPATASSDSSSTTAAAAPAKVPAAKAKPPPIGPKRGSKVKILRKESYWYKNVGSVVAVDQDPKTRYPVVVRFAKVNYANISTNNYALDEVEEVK

First the molecules themselves.
T1: Arabidopsis thaliana purple acid phosphatase 2 (yeast two-hybrid fusion) (Arabidopsis thaliana) (UniProt Q9LMG7)
T1 sequence: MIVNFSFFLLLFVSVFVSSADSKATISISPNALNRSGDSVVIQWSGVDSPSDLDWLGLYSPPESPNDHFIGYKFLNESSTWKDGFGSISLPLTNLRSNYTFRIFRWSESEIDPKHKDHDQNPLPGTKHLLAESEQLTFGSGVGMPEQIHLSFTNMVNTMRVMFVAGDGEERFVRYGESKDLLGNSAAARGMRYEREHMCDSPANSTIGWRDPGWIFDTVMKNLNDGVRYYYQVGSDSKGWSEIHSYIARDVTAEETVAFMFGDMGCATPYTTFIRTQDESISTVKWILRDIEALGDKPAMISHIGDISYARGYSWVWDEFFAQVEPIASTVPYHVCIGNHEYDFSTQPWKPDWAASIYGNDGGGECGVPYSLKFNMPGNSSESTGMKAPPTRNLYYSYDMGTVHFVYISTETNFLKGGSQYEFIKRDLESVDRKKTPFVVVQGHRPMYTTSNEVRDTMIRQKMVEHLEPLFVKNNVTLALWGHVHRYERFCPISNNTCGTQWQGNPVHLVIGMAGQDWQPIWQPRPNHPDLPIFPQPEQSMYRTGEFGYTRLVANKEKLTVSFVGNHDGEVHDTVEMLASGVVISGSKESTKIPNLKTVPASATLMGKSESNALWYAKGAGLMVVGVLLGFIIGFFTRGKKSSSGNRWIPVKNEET

B1: ferredoxin/thioredoxin reductase subunit A2 (yeast two-hybrid fusion) (protein, UniProt Q8LBP6 1-184)
chain: MTNSYALSPAIIAAVRPPASQDYLVAASLSGRKSINSSSSSIFVPISLSTSYGRSKCAFSISRKNPKSTIRCDIAVKSAASVDADADLSSSTSLETEEDEKAKEKIGARVRVTVPLKVYHVVRVPEVELMGMEGFIKDYVVLWKGKKISANLPFKVQFVKEIEGRGPVKFFTHLKEDEFELIDP
B2: FTRB (yeast two-hybrid fusion) (protein, UniProt Q9SJ89 1-146)
chain: MNLQAVSCSFGFLSSPLGVTPRTSFRRFVIRAKTEPSEKSVEIMRKFSEQYARRSGTYFCVDKGVTSVVIKGLAEHKDSYGAPLCPCRHYDDKAAEVGQGFWNCPCVPMRERKECHCMLFLTPDNDFAGKDQTITSDEIKETTANM
B3: FTRA1 (yeast two-hybrid fusion) (protein, UniProt Q9FHL4 1-182)
chain: MSSQIALSPAIAAAIRRPSSHDCLSASATTATATPMALKSCIVAPLSLFTSQSQIKHSSSRKTSRTTIRCDVAIKSADSINADANPSSSPSSEEEIEAEAKAKIGSRVRVTAPLKVYHVNRVPEVDLEGMEGKLKDYVAVWKGKRISANLPYKIEFFKEIEGRGLVKFVSHLKEDEFEFIDQ

Results are given in words; binding and its absence hold for the method and conditions named. Some entries that bind do so weakly or less than the wild type. Sequences can lack the tags named with a protein.

The assay concerns the target T1, Arabidopsis thaliana purple acid phosphatase 2 (yeast two-hybrid fusion) (Arabidopsis thaliana). The assay is described as follows: two-hybrid; systematic yeast two-hybrid assay of AtPAP2 against nucleus-encoded photosystem proteins; which partner was bait is not stated.
Regarding “Fd1 (yeast two-hybrid fusion) (from UniProt O04090 1-148)”, the binding result is “binds”.

With “Fd2 (yeast two-hybrid fusion) (from UniProt P16972 1-148)”, the binding result was “binds”.

As to “PsaE1 (yeast two-hybrid fusion) (from UniProt Q9S831 1-143)”, the binding entry is recorded as “no binding”.

Regarding “PsaE2 (yeast two-hybrid fusion) (from UniProt Q9S714 1-145)”, the binding result is “binds”.

As for B1, the binding result is listed as “binds”.

In the case of B2, the binding entry is “binds”.

Regarding B3, the binding entry was “no binding”.
